From the supplement of paper PMC8728848
Some of the results follow.

Assays:
Assay in all cases: glycan array binding signal (z-score within array); higher = stronger binding
Conditions in all cases: glycan notation: IUPAC condensed, linker removed
[1] = target: Gal(b1-4)GlcNAc(b1-3)GalNAc
Method in brief: (§1)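 Glycan array binding is given as a within-array Z-score, which can be read as non-binding when negative. The arrays, 3228 of them, came from the Consortium for Functional Glycomics database and were retained only where the protein sequence was available. Z-scores were averaged across arrays of the same protein sequence at different concentrations or buffers and across linkers.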

[2] = target: Gal(b1-4)GlcNAc(b1-3)[Gal(b1-4)GlcNAc(b1-6)]GalNAc
Method in brief: as §1

[3] = target: Gal(b1-4)GlcNAc(b1-6)Gal(b1-4)GlcNAc(b1-6)GalNAc
Method in brief: as §1

[4] = target: Gal(b1-4)GlcNAc(b1-6)GalNAc
Method in brief: as §1

[5] = target: Gal(b1-4)GlcNAc(b1-6)[Gal(b1-3)]GalNAc
Method in brief: as §1

Gal3S(b1-3)GalNAc = target: Gal3S(b1-3)GalNAc
Method in brief: as §1

Gal3S(b1-3)GlcNAc = target: Gal3S(b1-3)GlcNAc
Method in brief: as §1

[6] = target: Gal3S(b1-3)[Fuc(a1-4)]GlcNAc
Method in brief: as §1

Gal3S(b1-4)Glc = target: Gal3S(b1-4)Glc
Method in brief: as §1

Gal3S(b1-4)Glc6S = target: Gal3S(b1-4)Glc6S
Method in brief: as §1

Gal3S(b1-4)GlcNAc = target: Gal3S(b1-4)GlcNAc
Method in brief: as §1

Gal3S(b1-4)GlcNAc6S = target: Gal3S(b1-4)GlcNAc6S
Method in brief: as §1

Gal3S6S(b1-4)GlcNAc = target: Gal3S6S(b1-4)GlcNAc
Method in brief: as §1

Gal3S6S(b1-4)GlcNAc6S = target: Gal3S6S(b1-4)GlcNAc6S
Method in brief: as §1

Gal4S(b1-4)GlcNAc = target: Gal4S(b1-4)GlcNAc
Method in brief: as §1

Gal4S6S(b1-4)GlcNAc = target: Gal4S6S(b1-4)GlcNAc
Method in brief: as §1

Gal6S(b1-4)Glc = target: Gal6S(b1-4)Glc
Method in brief: as §1

Gal6S(b1-4)Glc6S = target: Gal6S(b1-4)Glc6S
Method in brief: as §1

Gal6S(b1-4)GlcNAc = target: Gal6S(b1-4)GlcNAc
Method in brief: as §1

GalNAc(a1-3)Gal = target: GalNAc(a1-3)Gal
Method in brief: as §1

GalNAc(a1-3)GalNAc = target: GalNAc(a1-3)GalNAc
Method in brief: as §1

[7] = target: GalNAc(b1-3)Gal(a1-4)Gal(b1-4)GlcNAc
Method in brief: as §1

GalNAc(b1-3)GalNAc = target: GalNAc(b1-3)GalNAc
Method in brief: as §1

GalNAc(b1-4)GlcNAc = target: GalNAc(b1-4)GlcNAc
Method in brief: as §1

Glc(a1-4)Glc = target: Glc(a1-4)Glc
Method in brief: as §1

Glc(a1-6)Glc(a1-6)Glc = target: Glc(a1-6)Glc(a1-6)Glc
Method in brief: as §1

Glc(b1-4)Glc = target: Glc(b1-4)Glc
Method in brief: as §1

Glc(b1-6)Glc = target: Glc(b1-6)Glc
Method in brief: as §1

GlcA(b1-3)Gal = target: GlcA(b1-3)Gal
Method in brief: as §1

GlcA(b1-6)Gal = target: GlcA(b1-6)Gal
Method in brief: as §1

[8] = target: GlcNAc(a1-3)Gal(b1-4)GlcNAc
Method in brief: as §1

[9] = target: GlcNAc(a1-6)Gal(b1-4)GlcNAc
Method in brief: as §1

[10] = target: GlcNAc(b1-2)Gal(b1-3)GalNAc
Method in brief: as §1

[11] = target: GlcNAc(b1-2)Man(a1-3)[GlcNAc(b1-2)Man(a1-6)]Man(b1-4)GlcNAc(b1-4)GlcNAc
Method in brief: as §1

GlcNAc(b1-3)Gal = target: GlcNAc(b1-3)Gal
Method in brief: as §1

[12] = target: GlcNAc(b1-3)Gal(b1-3)GalNAc
Method in brief: as §1

GlcNAc(b1-3)Gal(b1-4)Glc = target: GlcNAc(b1-3)Gal(b1-4)Glc
Method in brief: as §1

B1: CLL-1 (Homo sapiens) (protein)
chain: MWIDFFTYSSMSEEVTYADLQFQNSSEMEKIPEIGKFGEKAPPAPSHVWRPAALFLTLLCLLLLIGLGVLASMFHVTLKIEMKKMNKLQNISEELQRNISLQLMSNMNISNKIRNLSTTLQTIATKLCRELYSKEQEHKCKPCPRRWIWHKDSCYFLSDDVQTWQESKMACAAQNASLLKINNKNALEFIKSQSRSYDYWLGLSPEEDSTRGMRVDNIINSSAWVIRNAPDLNNMYCGYINRLYVQYYHCTYKKRMICEKMANPVQLGSTYFREA
[1]
  glycan array binding signal (z-score): -0.238
[2]
  glycan array binding signal (z-score): -0.154
[3]
  glycan array binding signal (z-score): -0.227
[4]
  glycan array binding signal (z-score): -0.234
[5]
  glycan array binding signal (z-score): -0.188
Gal3S(b1-3)GalNAc
  glycan array binding signal (z-score): -0.125
Gal3S(b1-3)GlcNAc
  glycan array binding signal (z-score): -0.256
[6]
  glycan array binding signal (z-score): -0.158
Gal3S(b1-4)Glc
  glycan array binding signal (z-score): 0.106
Gal3S(b1-4)Glc6S
  glycan array binding signal (z-score): 1
Gal3S(b1-4)GlcNAc
  glycan array binding signal (z-score): -0.158
Gal3S(b1-4)GlcNAc6S
  glycan array binding signal (z-score): 0.454
Gal3S6S(b1-4)GlcNAc
  glycan array binding signal (z-score): 0.063
Gal3S6S(b1-4)GlcNAc6S
  glycan array binding signal (z-score): 3.91
Gal4S(b1-4)GlcNAc
  glycan array binding signal (z-score): -0.123
Gal4S6S(b1-4)GlcNAc
  glycan array binding signal (z-score): 0.267
Gal6S(b1-4)Glc
  glycan array binding signal (z-score): 0.398
Gal6S(b1-4)Glc6S
  glycan array binding signal (z-score): 0.275
Gal6S(b1-4)GlcNAc
  glycan array binding signal (z-score): -0.093
GalNAc(a1-3)Gal
  glycan array binding signal (z-score): -0.122
GalNAc(a1-3)GalNAc
  glycan array binding signal (z-score): -0.243
[7]
  glycan array binding signal (z-score): -0.275
GalNAc(b1-3)GalNAc
  glycan array binding signal (z-score): -0.035
GalNAc(b1-4)GlcNAc
  glycan array binding signal (z-score): -0.221
Glc(a1-4)Glc
  glycan array binding signal (z-score): 1
Glc(a1-6)Glc(a1-6)Glc
  glycan array binding signal (z-score): -0.11
Glc(b1-4)Glc
  glycan array binding signal (z-score): -0.244
Glc(b1-6)Glc
  glycan array binding signal (z-score): -0.306
GlcA(b1-3)Gal
  glycan array binding signal (z-score): -0.159
GlcA(b1-6)Gal
  glycan array binding signal (z-score): -0.161
[8]
  glycan array binding signal (z-score): -0.303
[9]
  glycan array binding signal (z-score): -0.315
[10]
  glycan array binding signal (z-score): -0.141
[11]
  glycan array binding signal (z-score): -0.128
GlcNAc(b1-3)Gal
  glycan array binding signal (z-score): -0.18
[12]
  glycan array binding signal (z-score): -0.103
GlcNAc(b1-3)Gal(b1-4)Glc
  glycan array binding signal (z-score): -0.109
